Counter-ions that a name gives are not always drawn. This is one part of the list. Rule as the data show it: active = -2 or less and inactive = the rest. Many values rest on one well or one pass, so single values are uncertain.
Test system: hPSC-derived cortical neurons (WA09)
Assay: nuclei number (viability) z-score; higher = more surviving cells
Conditions: 5 µM; treatment: days 7-14 after plating, readout day 21
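Also: nuclei counted from DAPI counterstain by automated high-content image analysis, four fields per well at ×20 in 384-well plates, with sequential b-score then z-score normalization.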

| SMILES | nuclei number (z-score) |
| --- | --- |
| CCCCOc1cc(C(=O)NCCN(CC)CC)c2ccccc2n1 [Dibucaine HCl] | inactive: 0.317 |
| O=P(O)(O)C(Cl)(Cl)P(=O)(O)O [Clodronate Disodium] | inactive: 0.219 |
| O=C1CCc2cc(OCCCCc3nnnn3C3CCCCC3)ccc2N1 [Cilostazol] | inactive: 0.591 |
| N#C[C@@H]1C[C@@H]2C[C@@H]2N1C(=O)[C@@H](N)C12CC3CC(CC(O)(C3)C1)C2 [Saxagliptin hydrate] | inactive: 0.19 |
| N#C[C@@H]1C[C@@H]2C[C@@H]2N1C(=O)[C@@H](N)C12CC3CC(CC(O)(C3)C1)C2 [Saxagliptin] | inactive: 1.09 |
| CCS(=O)(=O)CCn1c([N+](=O)[O-])cnc1C [Tinidazole] | inactive: 0.883 |
| Cc1cc(C(O)=C2C(=O)C(=O)N(CCCN3CCOCC3)C2c2ccncc2)ccc1OCc1ccccc1 (stereo not given) | inactive: 0.422 |
| Nc1ncnc2c1c(-c1cnc3[nH]ccc3c1)nn2C1CCCC1 | active: -3.75 |
| Cc1nc(NC(=O)N2CCC[C@H]2C(N)=O)sc1-c1ccnc(C(C)(C)C(F)(F)F)c1 | inactive: -0.155 |
| COc1ccc(C(=O)C2CCN(CC(=O)N(Cc3nc4c(c(=O)[nH]3)COCC4)CC3CC3)CC2)cc1 | inactive: -1.29 |
| CC(C)NCC(O)COc1cccc2ccccc12 (stereo not given) [Propranolol HCl] | inactive: -0.41 |
| Oc1c2ccccc2c2c3c(cccc13)N=N2 | inactive: -0.406 |
| COC(=O)[C@@H]1[C@H]2C[C@H]3c4[nH]c5ccccc5c4CCN3C[C@@H]2CC[C@@H]1O [Yohimbine HCl] | inactive: -0.492 |
| CN(C)Cc1ccc(-c2nc3cccc4c3n2CCNC4=O)cc1 | inactive: 1.14 |
| O=C(/C=C\n1cnc(-c2cc(C(F)(F)F)cc(C(F)(F)F)c2)n1)NNc1cnccn1 | active: -3.88 |
| Cc1[nH]c(/C=C2\C(=O)Nc3ccc(S(=O)(=O)N(C)c4cccc(Cl)c4)cc32)c(C)c1C(=O)N1CCN(C)CC1 | inactive: 1.01 |
| CCCCCCc1ccc(O)cc1O [Hexylresorcinol] | inactive: -0.855 |
| CCC1C/C(=C\c2cccnc2)C(=O)/C(=C/c2cccnc2)C1 (stereo not given) | active: -5.67 |
| CC(C)C[C@H](NC(=O)[C@H]1O[C@@H]1C(=O)O)C(=O)NCCCCN=C(N)N | active: -4.48 |
| O=NN(CCCl)C(=O)NC1CCCCC1 [Lomustine] | inactive: -0.782 |
| COc1cc(CCC(C)=O)ccc1O [Vanillylacetone] | inactive: 5.64 |
| Cc1cccc(CN2CCN(C(c3ccccc3)c3ccc(Cl)cc3)CC2)c1 (stereo not given) [Meclizine 2HCl] | active: -8.08 |
| Cc1c[nH]c2nc(Nc3ccc(N4CCN(C)CC4)c(F)c3)nc(-c3cccc(CC#N)c3)c12 | active: -7.95 |
| O=C(O)CCC(=O)Nc1ccc(S(=O)(=O)Nc2nccs2)cc1 [Succinylsulfathiazole] | inactive: 0.707 |

| SMILES | nuclei number (z-score) |
| --- | --- |
| COc1cnc(NS(=O)(=O)c2ccc(N)cc2)nc1 [Sulfameter] | inactive: 0.364 |
| CC(C)c1cc(C(=O)N2Cc3ccc(CN4CCN(C)CC4)cc3C2)c(O)cc1O | active: -2.45 |
| CN1CCC(COc2cnc(-c3cccc(Cn4nc(-c5cccc(C#N)c5)ccc4=O)c3)nc2)CC1 | inactive: 0.000827 |
| CCOC(=O)C1=C[C@]2(CC)CCCN3CCc4c(n1c1ccccc41)[C@@H]32 [Vinpocetine] | inactive: 0.244 |
| C[C@]12CC[C@@H]3c4ccc(O)cc4CC[C@H]3[C@@H]1CCC2=O [Estrone] | inactive: 0.122 |
| COc1cc(C(=O)NC2CCCNC2)cc(OC)c1OC (stereo not given) [Troxipide] | inactive: 0.297 |
| CN(C)[C@@H]1C(O)=C(C(N)=O)C(=O)[C@@]2(O)C(O)=C3C(=O)c4c(O)ccc(Cl)c4[C@@](C)(O)[C@H]3C[C@@H]12 [Chlortetracycline HCl] | inactive: 0.5 |
| CCCCCCCCc1ccc(CCC(N)(CO)CO)cc1 [Fingolimod (FTY720) HCl] | active: -5.12 |
| CCC(CC)CC1(C(=O)Nc2ccccc2SC(=O)C(C)C)CCCCC1 | inactive: 1.69 |
| c1ccc2[nH]c(-c3cscn3)nc2c1 [Thiabendazole] | inactive: 4.66 |
| Cn1cc(-c2ccc3nnc(C(F)(F)c4ccc5ncccc5c4)n3n2)cn1 | inactive: 0.322 |
| CN1CC2c3ccccc3Oc3ccc(Cl)cc3C2C1 (stereo not given) [Asenapine] | inactive: 1.58 |
| CCCCNc1ncc2c(-c3ccc(CN4CCN(C)CC4)cc3)cn([C@H]3CC[C@H](O)CC3)c2n1 | active: -4.69 |
| COC1=C2C[C@@H](C)C[C@H](OC)[C@H](O)[C@@H](C)/C=C(\C)[C@H](OC(N)=O)[C@@H](OC)/C=C\C=C(/C)C(=O)NC(=CC1=O)C2=O [Geldanamycin] | active: -2.34 |
| CNC(=O)Nc1ccc(-c2nc(N3CC4CCC(C3)O4)c3cnn(C4CCC5(CC4)OCCO5)c3n2)cc1 | active: -2.68 |
| C[N+](C)(C)NCCC(=O)[O-] [Mildronate] | inactive: 1.42 |
| COc1ccc(-c2cc(=O)c3c(O)cc(O[C@@H]4O[C@H](CO[C@@H]5O[C@@H](C)[C@H](O)[C@@H](O)[C@H]5O)[C@@H](O)[C@H](O)[C@H]4O)cc3o2)cc1O [Diosmin] | inactive: -0.835 |
| COc1cc(Nc2ncc(F)c(Nc3ccc4c(n3)N(COP(=O)(O)O)C(=O)C(C)(C)O4)n2)cc(OC)c1OC [R788 (Fostamatinib) Disodium] | inactive: -0.486 |
| COc1cc(Nc2ncc(F)c(Nc3ccc4c(n3)N(COP(=O)(O)O)C(=O)C(C)(C)O4)n2)cc(OC)c1OC [Fostamatinib (R788)] | inactive: 0.00234 |
| Cc1nnc(C(C)C)n1C1C[C@H]2CC[C@@H](C1)N2CC[C@H](NC(=O)C1CCC(F)(F)CC1)c1ccccc1 (stereo in doubt) [Maraviroc] | inactive: 1.19 |
| CCCCCCCN(CC)CCCC(O)c1ccc(NS(C)(=O)=O)cc1 (stereo not given) [Ibutilide Fumarate] | inactive: 1.95 |
| CC1(C)S[C@@H]2[C@H](NC(=O)[C@H](NC(=O)N3CCN(S(C)(=O)=O)C3=O)c3ccccc3)C(=O)N2[C@H]1C(=O)O [Mezlocillin Sodium] | inactive: -0.0138 |
| Cn1c(=O)cc(N2CCC[C@@H](N)C2)n(Cc2ccccc2C#N)c1=O [Alogliptin] | inactive: -0.743 |
| CC1=C(CC(=O)O)c2cc(F)ccc2/C1=C\c1ccc([S+](C)[O-])cc1 (stereo not given) [Sulindac] | inactive: 0.607 |

| SMILES | nuclei number (z-score) |
| --- | --- |
| C=CC(=O)Nc1ccc2ncnc(Nc3ccc(OCc4cccc(F)c4)c(Cl)c3)c2c1 | inactive: -1.25 |
| CC(=O)N1CCN(CCOc2ccc(C3CCN(C4=Nn5c(nnc5C(F)(F)F)CC4)CC3)cc2)CC1 | inactive: -0.23 |
| C=CC(=O)N1CCC[C@@H](n2nc(-c3ccc(Oc4ccccc4)cc3)c3c(N)ncnc32)C1 | inactive: 0.247 |
| O=C(O)c1ccccc1C(=O)Nc1ccc(-c2ccccc2)cc1 [Kartogenin] | inactive: 0.027 |
| C[C@@H]1CN(CC(=O)Nc2ccc3c(c2)Cc2cccc(-c4cc(=O)cc(N5CCOCC5)o4)c2S3)C[C@H](C)O1 | inactive: 0.689 |
| CCC[C@H](NC(=O)[C@@H]1[C@H]2CCC[C@H]2CN1C(=O)[C@@H](NC(=O)[C@@H](NC(=O)c1cnccn1)C1CCCCC1)C(C)(C)C)C(=O)C(=O)NC1CC1 [Telaprevir (VX-950)] | inactive: 0.377 |
| Cc1noc(NS(=O)(=O)c2ccc(N)cc2)c1C [Sulfisoxazole] | inactive: 0.537 |
| CCc1cccc2c3c([nH]c12)C(CC)(CC(=O)O)OCC3 (stereo not given) [Etodolac] | inactive: 0.599 |
| Cc1nc(N)sc1-c1ccnc(Nc2ccc(N3CCOCC3)cc2)n1 | inactive: 1.75 |
| CN1C(=O)[C@@H](NC(=O)c2cc(Cc3ccccc3)on2)COc2ccccc21 | inactive: -0.452 |
| C[C@]12CC[C@@H]3c4ccc(O)cc4CC[C@H]3[C@@H]1C[C@@H](O)[C@@H]2O [Estriol] | inactive: 1.47 |
| CNC(=O)[C@H](Cc1ccccc1)NC(=O)[C@H](CC(C)C)[C@H](CSc1cccs1)C(=O)NO [Batimastat (BB-94)] | inactive: 0.685 |
| CCOC(=O)[C@H](CCc1ccccc1)N[C@@H](C)C(=O)N1CCC[C@H]1C(=O)O [Enalapril Maleate] | inactive: 0.266 |
| C[C@H](NC(=O)[C@@H](Cc1ccc2ccccc2c1)NC(=O)[C@@H](C)N)C(=O)N[C@@H](Cc1c[nH]c2ccccc12)C(=O)N[C@H](Cc1ccccc1)C(=O)N[C@@H](CCCCN)C(N)=O | inactive: -0.379 |
| COc1ccc2[nH]c([S+]([O-])Cc3ncc(C)c(OC)c3C)nc2c1 (stereo not given) [Omeprazole] | active: -3.49 |
| COc1nc(-c2ccc3c(c2)OCO3)n(-c2ccc(NC(=O)CSc3ccccc3)cc2)n1 [SecinH3] | inactive: 0.921 |
| CCS(=O)(=O)Nc1ccc2c(c1)/C(=C(/Nc1ccc(CN3CCCCC3)cc1)c1ccccc1)C(=O)N2 [Hesperadin] | active: -4.28 |
| O=C(Nc1ccc(-c2ccnc(Nc3ccc(N4CCOCC4)cc3)n2)cc1)C1CCCN1 (stereo not given) | inactive: 4.65 |
| O=S(=O)(O)CCCS(=O)(=O)O [Eprodisate disodium] | inactive: 1.07 |
| NC(=S)N/N=C/c1ncccc1N [Triapine] | inactive: -0.17 |
| Nc1cccc2c1CN(C1CCC(=O)NC1=O)C2=O (stereo not given) [Lenalidomide (CC-5013)] | inactive: 1.58 |
| C=CC1=C(C(=O)O)N2C(=O)[C@@H](NC(=O)/C(=N\OCC(=O)O)c3csc(N)n3)[C@H]2SC1 [Cefixime] | inactive: 0.412 |

Source: the supplement of paper PMC11348887
